# The list shows a part of the results. These are noisy estimates, calculated here from bound and input reads.
# Molecular target: T1, Pho4 (S. cerevisiae) (UniProt P07270)
# T1 sequence: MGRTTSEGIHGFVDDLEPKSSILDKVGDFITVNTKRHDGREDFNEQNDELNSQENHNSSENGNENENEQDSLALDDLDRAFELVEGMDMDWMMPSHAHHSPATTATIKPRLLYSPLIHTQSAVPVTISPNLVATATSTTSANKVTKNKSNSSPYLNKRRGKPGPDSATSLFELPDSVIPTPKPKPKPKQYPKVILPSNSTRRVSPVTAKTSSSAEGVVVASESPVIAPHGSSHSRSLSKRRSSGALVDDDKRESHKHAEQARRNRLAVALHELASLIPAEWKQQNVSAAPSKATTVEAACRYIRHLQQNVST
# Assay: relative binding free energy (BET-seq); higher = weaker binding
# Settings: reference: library average
row,Sequence,relative binding free energy
1,TAGTTCACGTGGTTTA,0.2 kcal/mol
2,TTTTCCACGTGTTGTT,0.02 kcal/mol
3,CGGTTCACGTGTTAGG,0.35 kcal/mol
4,AGATGCACGTGGATTA,-0.05 kcal/mol
5,GGGCGCACGTGAGATG,0.2 kcal/mol
6,TGGGTCACGTGATTAA,0.19 kcal/mol
7,TGAGCCACGTGGTATT,-0.15 kcal/mol
8,TCAAGCACGTGGTTGA,-0.08 kcal/mol
9,GGTACCACGTGGATGT,-0.11 kcal/mol
10,GGAGTCACGTGGCATA,0.09 kcal/mol
11,GGCTGCACGTGGTAAG,0.08 kcal/mol
12,AGGATCACGTGTGGAC,0.24 kcal/mol
13,GTAAGCACGTGGGTGG,-0.13 kcal/mol
14,TGATACACGTGTAGCG,0.11 kcal/mol
15,GGGGGCACGTGGTTGG,-0.1 kcal/mol
16,GTACTCACGTGATAGT,0.35 kcal/mol
17,GTGATCACGTGTTTGG,0.23 kcal/mol
18,GAGTACACGTGAGGTC,0.51 kcal/mol
19,ATTCACACGTGGGTGA,0.08 kcal/mol
20,TTGAGCACGTGGTCGG,-0.16 kcal/mol
21,TATTTCACGTGGGCGT,0.09 kcal/mol
22,GGGTGCACGTGATCAT,0 kcal/mol
23,GTGTTCACGTGTATGG,0.23 kcal/mol
24,TTTGTCACGTGGTCAA,0.07 kcal/mol
25,ATGGGCACGTGGTGTC,-0.1 kcal/mol

row,Sequence,relative binding free energy
1,AGAGGCACGTGTAAGA,0.1 kcal/mol
2,GGAGTCACGTGTGAAG,0.05 kcal/mol
3,TCATACACGTGGGGGT,-0.03 kcal/mol
4,GCCATCACGTGTGTGG,0.25 kcal/mol
5,CGTTGCACGTGTGTTA,-0.04 kcal/mol
6,TAGAGCACGTGCGGGA,-0.06 kcal/mol
7,GGGTCCACGTGAGAGT,0.2 kcal/mol
8,AGATTCACGTGCCTGT,0.42 kcal/mol
9,GGGGCCACGTGCAAGG,0.02 kcal/mol
10,GGTTGCACGTGGTGAG,-0.01 kcal/mol
11,TAAGCCACGTGAGTGT,0.08 kcal/mol
12,TTGGGCACGTGATACT,0.05 kcal/mol
13,CTTTTCACGTGTGGTA,0.18 kcal/mol
14,ATATTCACGTGGGGAT,0.11 kcal/mol
15,TCGGGCACGTGGGTAG,-0.24 kcal/mol
16,GTATTCACGTGCGTAG,0.15 kcal/mol
17,TAATTCACGTGGGCGG,0.07 kcal/mol
18,TGATTCACGTGTACGG,0.24 kcal/mol
19,TTTGGCACGTGGGACG,-0.12 kcal/mol
20,ATGTCCACGTGGATGG,-0.06 kcal/mol
21,CGAGTCACGTGTTTGA,0.01 kcal/mol
22,CAGATCACGTGGGTTG,-0.13 kcal/mol
23,CGGTTCACGTGATATA,0.43 kcal/mol
24,GATCTCACGTGTTTGT,0.12 kcal/mol
25,GTCGGCACGTGTGTCT,-0.03 kcal/mol

row,Sequence,relative binding free energy
1,AGATGCACGTGCGTGA,-0.06 kcal/mol
2,GTTTGCACGTGGTATC,0.07 kcal/mol
3,GGCTGCACGTGTAAAG,0.21 kcal/mol
4,GTTATCACGTGTTTAG,0.12 kcal/mol
5,AGTGTCACGTGTCCGT,0.06 kcal/mol
6,TTTATCACGTGTCTTG,0.22 kcal/mol
7,ATACTCACGTGAGGTT,0.28 kcal/mol
8,TAGGGCACGTGCAGTT,-0.15 kcal/mol
9,GGTAGCACGTGAGTTC,0.31 kcal/mol
10,CTGTGCACGTGGGATT,-0.12 kcal/mol
11,ATGAACACGTGAGTGG,0.09 kcal/mol
12,GTAATCACGTGGGTGA,0.16 kcal/mol
13,CGCTACACGTGGAGTG,0.22 kcal/mol
14,GGGGGCACGTGGCTAT,-0.22 kcal/mol
15,GGGTCCACGTGGGGCT,-0.28 kcal/mol
16,TAGGTCACGTGCGTAT,-0.04 kcal/mol
17,AATTCCACGTGGTGGT,0.14 kcal/mol
18,AGGTTCACGTGAGAGT,0.48 kcal/mol
19,CTTGTCACGTGATTAT,0.06 kcal/mol
20,TACTGCACGTGGCTTT,-0.02 kcal/mol
21,CATTGCACGTGTGTAT,-0.04 kcal/mol
22,GTTGGCACGTGTTAAA,-0.01 kcal/mol
23,GGTCGCACGTGTAGCG,0.05 kcal/mol
24,GGATGCACGTGTGGCA,0.14 kcal/mol
25,CCGTGCACGTGTTTGG,-0.09 kcal/mol

row,Sequence,relative binding free energy
1,GGTCTCACGTGAATTG,0.43 kcal/mol
2,GGGTACACGTGTAGGA,0.13 kcal/mol
3,GGCGGCACGTGGAAGT,0.04 kcal/mol
4,TTTTGCACGTGTGTGT,0.08 kcal/mol
5,AGTTGCACGTGTGCAG,0.08 kcal/mol
6,AGAGGCACGTGATATG,-0.23 kcal/mol
7,GGGGGCACGTGTGGTG,-0.04 kcal/mol
8,AGGGGCACGTGCCGCG,-0.16 kcal/mol
9,GGTGGCACGTGGTTCG,-0.1 kcal/mol
10,TTGGGCACGTGTATCG,-0.09 kcal/mol
11,AGGAGCACGTGGTCGT,-0.16 kcal/mol
12,TATAACACGTGTTCGG,0 kcal/mol
13,TACGTCACGTGCGTGG,0.01 kcal/mol
14,TTGTGCACGTGCATGG,0.01 kcal/mol
15,AATTGCACGTGTGAAA,0.15 kcal/mol
16,CTGTTCACGTGGTTAC,0.28 kcal/mol
17,TATTGCACGTGTGGTC,0.15 kcal/mol
18,AGTTTCACGTGCATAT,0.13 kcal/mol
19,TTGGGCACGTGTAATC,0.03 kcal/mol
20,GGGTTCACGTGTAGCG,0.45 kcal/mol
21,GGGGACACGTGATGGC,0.14 kcal/mol
22,TGTTACACGTGAAATT,0.37 kcal/mol
23,TCGATCACGTGTTGGG,0.12 kcal/mol
24,TTGGCCACGTGTTCTT,-0.09 kcal/mol
25,AGCGACACGTGTGCGG,0.01 kcal/mol

row,Sequence,relative binding free energy
1,AGCGACACGTGTGAGG,0.05 kcal/mol
2,ATGGGCACGTGGGCAG,-0.32 kcal/mol
3,GCAGTCACGTGAGGTG,0.3 kcal/mol
4,TGAGCCACGTGAGGGA,0.1 kcal/mol
5,GTTTACACGTGTACTG,0.18 kcal/mol
6,GTGCGCACGTGGGTAC,-0.14 kcal/mol
7,GTGTTCACGTGTGCGG,0.26 kcal/mol
8,GGTGTCACGTGAAGAG,0.16 kcal/mol
9,AAAGTCACGTGGTGTC,0.06 kcal/mol
10,TGGCCCACGTGCGGTG,-0.12 kcal/mol
11,TCTTGCACGTGTGGTA,0.03 kcal/mol
12,TTTTACACGTGCGTTA,0.1 kcal/mol
13,CTTGGCACGTGGGCAG,-0.28 kcal/mol
14,GGGAGCACGTGTCGTA,-0.07 kcal/mol
15,CTTGTCACGTGGAGAT,0.16 kcal/mol
16,ACTTACACGTGTTGTG,-0.07 kcal/mol
17,TAGTCCACGTGTGGAG,0.15 kcal/mol
18,ATCTTCACGTGTTGTT,0.12 kcal/mol
19,TATATCACGTGTTGGT,0.24 kcal/mol
20,TTTGTCACGTGCGTCA,0 kcal/mol
21,ATTGTCACGTGCAATG,0.04 kcal/mol
22,GTAGACACGTGTAATT,0.26 kcal/mol
23,ATGAACACGTGTAAGG,0.06 kcal/mol
24,GTCGTCACGTGAGAGG,0.31 kcal/mol
25,GTTTTCACGTGCCGTT,0.31 kcal/mol

row,Sequence,relative binding free energy
1,GTAACCACGTGTTTTT,0.1 kcal/mol
2,GAAATCACGTGGGGGT,0.13 kcal/mol
3,GGACGCACGTGTGGTA,0.02 kcal/mol
4,CTTATCACGTGTAAGG,0.09 kcal/mol
5,TGTCGCACGTGTAAGG,0.01 kcal/mol
6,GTGGTCACGTGGTACG,0.03 kcal/mol
7,TTTTGCACGTGACGTG,0.1 kcal/mol
8,GGGGGCACGTGGGGCA,-0.2 kcal/mol
9,GCTTGCACGTGGTAGT,-0.02 kcal/mol
10,TGAACCACGTGGGGTG,-0.24 kcal/mol
11,GATTTCACGTGGGGAG,0.3 kcal/mol
12,CTTGGCACGTGGGGGG,-0.2 kcal/mol
13,TCGGTCACGTGGCTGG,-0.01 kcal/mol
14,TTCTGCACGTGGAGTC,0.12 kcal/mol
15,TGTGCCACGTGGGTAT,-0.19 kcal/mol
16,GCTGCCACGTGTGGGG,-0.08 kcal/mol
17,GGCATCACGTGGTGGC,0.2 kcal/mol
18,GTTGGCACGTGCAAGG,-0.12 kcal/mol
19,TTACGCACGTGTGATG,-0.13 kcal/mol
20,GTAGTCACGTGATCGT,0.22 kcal/mol
21,TAAGTCACGTGTTTAG,0.2 kcal/mol
